Literature values, collected in paper PMC10609526.
Entries with a single value are a further part of the results.

Molecular target: NapA Tat signal peptide (Escherichia coli) (UniProt P33937)
Test: ITC
Settings: pH 7.5

Sequence of UniProt P33937 (P33937 1-36): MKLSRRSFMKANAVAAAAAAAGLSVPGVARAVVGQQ
Sequence of NapD (P0A9I5 whole entry): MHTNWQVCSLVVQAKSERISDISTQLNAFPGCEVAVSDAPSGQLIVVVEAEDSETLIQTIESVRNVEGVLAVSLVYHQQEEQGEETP

Question: With NapD (from UniProt P0A9I5) as the substance, how does the Kd (major NapD population) read?
Answer: Its Kd is 0.14 µM.

Question: What about the Kd (minor NapD population) of the same substance?
Answer: Its Kd is 0.003 µM.
